Out of some 220,000 compounds screened, about 2,300 (1%) were called active. The inconclusive results got no clear call from the source; some entries with a clear call stand among them for comparison. Calls follow the shape of the dose curve; as a rule, active = well fitted inhibition curve with a large enough effect; inconclusive = small, poorly fitted or top-dose-only effect, or effect the other way; inactive = no such curve, though single readings can be large or run the other way. No potency is given beside an inconclusive call; the fits are too rough.
target: Neuropeptide S receptor (Homo sapiens) (UniProt Q6W5P4); assay: qHTS Assay for Antagonists of the Neuropeptide S Receptor: cAMP Signal Transduction; conditions: CHO-NPSR cells, cAMP TR-FRET, antagonist mode; activity change, negative = inhibition: at 38.3 µM (top of the series) unless noted; also: nearly all actives have a fitted effect of over 50% in size
UniProt Q6W5P4, sequence (Q6W5P4 whole entry, looked up): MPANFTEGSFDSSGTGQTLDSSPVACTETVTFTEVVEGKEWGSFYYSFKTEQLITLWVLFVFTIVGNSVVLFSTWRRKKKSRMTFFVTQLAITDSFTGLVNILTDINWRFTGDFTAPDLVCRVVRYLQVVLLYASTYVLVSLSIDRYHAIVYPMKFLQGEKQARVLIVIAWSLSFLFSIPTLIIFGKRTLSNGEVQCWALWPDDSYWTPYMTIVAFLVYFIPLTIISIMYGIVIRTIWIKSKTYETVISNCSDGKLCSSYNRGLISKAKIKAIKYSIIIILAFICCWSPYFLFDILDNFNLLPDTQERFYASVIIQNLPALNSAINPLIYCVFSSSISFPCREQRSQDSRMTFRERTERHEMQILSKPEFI
% is scaled to controls: 0 for no effect and ±100 for the full control effect; potency is read from the fitted curve at half-maximal effect; tags tell the direction and shape of the fitted curve.

Structure (SMILES) | Potency | activity change, negative = inhibition
COc1ccccc1N1CCN(C/C=C/c2ccc(N(C)C)cc2)CC1 | inconclusive [inhibitor, partial curve] | –
Cc1cccc(N2CCN(C(=O)C3CCN(c4nnc(-n5cccc5)s4)CC3)CC2C)c1 (stereo unspecified) | inactive | –
C=C(C)COc1ccc(-c2n[nH]c(C)c2-c2ccc(OC)c(OC)c2)c(O)c1 | inconclusive [inhibitor, single point] | –
COC(=O)c1ccccc1NC(=O)CSc1nccn1C | inactive | –
Cc1nnc(SCC(=O)N2c3ccccc3C(C)(c3ccc(Cl)cc3)CC2(C)C)s1 (stereo unspecified) | inconclusive [inhibitor, single point] | –
O=c1[nH]c2ccc(NC(=S)Nc3ccc(Cl)cc3Cl)cc2[nH]1 | inactive | –
O=c1cc2c(nn1Cc1c(Cl)cccc1Cl)-c1ccccc1CC2 | inconclusive [inhibitor, single point] | –
CC(=O)Oc1ccc(Cl)cc1/C=C/c1cc(OC(C)=O)c2ccccc2n1 | inconclusive [inhibitor, single point] | –
CN(C)c1ccc(CN(C(=O)COc2ccccc2)C2CCS(=O)(=O)C2)cc1 (stereo unspecified) | inactive | –
COc1ccc(C(=O)Nc2ccc(S(=O)(=O)N3CCCCC3C)cc2)c(OC)c1OC (stereo unspecified) | inconclusive [inhibitor, partial curve, poor fit] | –
O=C(Nc1cc(C(F)(F)F)ccc1Cl)C(Sc1n[nH]c(=O)[nH]c1=O)c1ccccc1 (stereo unspecified) | inconclusive [inhibitor, single point] | –
CCc1nc(SCC(=O)NCc2ccco2)c2c3c(sc2n1)CCCC3 | inconclusive [activator, single point] | –
COc1cccc(NC(=O)C2C3C=CC(O3)C2C(=O)NCc2cccnc2)c1 (stereo unspecified) | inconclusive [inhibitor, single point] | –
Cc1ccc(C(=O)Nc2nc(=O)n(C(=O)C3CC3)s2)cc1 | inconclusive [inhibitor, single point] | –
Cc1ccc2nc(SCc3ccc([N+](=O)[O-])cc3)[nH]c2c1 | inconclusive [inhibitor, partial curve] | –
O=C(CSc1c2c(nc3cc(Cl)ccc13)CCCC2)NCc1ccco1 | inconclusive [inhibitor, single point] | –
CCOC(=O)C1=C(O)/C(=C/c2ccc(CNC(=O)C(=O)Nc3ccc(C)cc3)o2)N=C1C | inconclusive [inhibitor, single point] | –
CC1CC(=O)C2=C(C1)Nc1ncnn1C2c1ccccc1 (stereo unspecified) | inactive | –
Cc1ccc(-c2csc(N/N=C/c3ccco3)n2)cc1 | inactive | –
Oc1ccccc1C=NC1=NN(c2cccc(C(F)(F)F)c2)CC1 | inactive | –
COc1ccc(-c2cc3ccccc3n2CC(O)CN2CCC(C)CC2)cc1 (stereo unspecified) | inconclusive [inhibitor, single point] | –
COc1ccc(Cl)cc1NC(=S)Nc1cccc(C)c1 | inactive | –
CCCCNc1cc(C(=O)O)cc(S(N)(=O)=O)c1Oc1ccccc1 | inconclusive [inhibitor, single point] | –
O=C(c1ccc(Cl)cc1)c1cc(-c2ccccn2)c(N2CCOCC2)s1 | inconclusive [inhibitor, single point] | –
O=C1CC(c2ccc(F)cc2)Cc2nc(N3CCc4ccccc43)ncc21 (stereo unspecified) | inconclusive [inhibitor, single point] | –
C/C(=N/O)c1ccccn1 | inactive | –

Structure (SMILES) | Potency | activity change, negative = inhibition
Cc1cc(NC(=O)c2sc(Nc3cccc(C(F)(F)F)c3)nc2N)no1 | inactive | –
Cc1ccc(N=N/C(=C\O)C(=O)c2ccc(Cl)cc2)cc1 | active: 7.94 µM | –
CCOC(=O)c1cc(C#N)c(SCc2ccc(C#N)cc2)nc1C | inconclusive [inhibitor, partial curve, poor fit] | –
COc1ccc(C(=O)NC(=S)Nc2nnn(C)n2)cc1 | inactive | –
N#Cc1ccc(OCC(O)CS(=O)(=O)c2ccc(F)cc2)cc1 (stereo unspecified) | inactive | –
CC(C)(C)C1C/C(=C/c2ccccn2)C(=O)/C(=C/c2ccccn2)C1 (stereo unspecified) | active: 2 µM | –
CCCCn1c(CN(C)Cc2ccccc2)nc2c1c(=O)n(C)c(=O)n2C | inactive | –
CCCC(=O)N1CCN(c2ccc(NC(=O)c3ccc([N+](=O)[O-])o3)cc2)CC1 | active: 7.94 µM | –
O=C(Nc1nc2c(s1)CCCC2)c1ccc(Br)s1 | inconclusive [inhibitor, partial curve] | –
O=C(Nc1cc(F)cc(F)c1)c1sc(Cl)nc1-c1ccccc1 | inconclusive [inhibitor, single point] | –
C#CC(C)(C)NC(=S)NC1CC2C=CC1C2 (stereo unspecified) | inactive | –
Cc1cc(C(=O)CSc2nnc(Cc3ccccc3)o2)c(C)n1Cc1ccc2c(c1)OCO2 | inconclusive [inhibitor, single point] | –
CCc1cc2c(N=Nc3c(O)[nH]c4ccccc34)ncnc2s1 | inactive | –
C/C(CC(=O)N1CCN(C=O)CC1)=N\NC(=O)c1cccc([N+](=O)[O-])c1 | inactive | –
CCC(C)C(=O)Nc1ccc(OC)cc1OC (stereo unspecified) | inactive | –
Cc1ccc(F)cc1NC(=O)N1CCN(C2c3ccccc3-c3ccccc32)CC1 | inconclusive [activator, single point] | –
CC1CN(Cc2nc3c(c(=O)n(C)c(=O)n3C)n2CCCO)CC(C)O1 (stereo unspecified) | inactive | –
CC(Nc1ccc(Br)cc1)C(=O)N/N=C/c1ccccc1OCc1ccccc1 (stereo unspecified) | inconclusive [inhibitor, single point] | –
Cc1ccc(C)c(/C=C/C(=O)c2ccccc(=O)c2O)c1 | active: 12.6 µM | –
O=c1c2c([nH]c3ccccc13)C(=C1CCCC1)CC2 | inconclusive [inhibitor, single point] | –
O=C(Nc1ncc(Cc2cccc(C(F)(F)F)c2)s1)c1ccc(-c2cccc([N+](=O)[O-])c2)o1 | inactive | –
Cc1cc(-c2cc(C(=O)NCc3ccccc3)on2)nc(NC2CCCC2)n1 | inactive | –
C=CCn1c(SCc2csc(-c3ccc(Cl)cc3)n2)nnc1-c1ccccc1OC | inconclusive [inhibitor, partial curve] | –
Cc1cc2cc(CNC(=O)c3ccc(S(=O)(=O)N(C)C)cc3)ccc2n1C | inconclusive [inhibitor, single point] | –
COc1cc(C)c(CNc2cccc(C)c2)cc1C | inactive | –
C=C1SC(=Nc2ccccc2Cl)N(C(=O)c2sc3ccccc3c2Cl)C1(C)C | inconclusive [activator, single point] | –

Structure (SMILES) | Potency | activity change, negative = inhibition
CCSc1nnc(NC(=O)c2ccccc2C)s1 | inactive | –
COC(=O)/C(=C1/Oc2cc(C)oc(=O)c2S1)C(F)(F)F | inconclusive [inhibitor, full curve, poor fit] | –
Cc1c(C(=O)NCc2cccnc2)oc2ccc(S(=O)(=O)N3CC(C)CC(C)C3)cc12 (stereo unspecified) | inconclusive [inhibitor, partial curve, poor fit] | –
COc1ccc(-n2c(COc3ccccc3)nnc2SCc2ccc(C#N)cc2)cc1 | inconclusive [inhibitor, partial curve, poor fit] | –
Nc1c(C(=O)Nc2ccc(Br)cc2)sc2nc(-c3ccco3)ccc12 | inconclusive [activator, single point] | –
COc1ccc(CCNC(=O)c2cc(-c3ccccn3)nc3c(Cl)cccc23)cc1OC | inconclusive [inhibitor, single point] | –
COc1ccc(C2Nc3ccccc3C(=O)N2C2CCCCC2)cc1 (stereo unspecified) | inconclusive [inhibitor, single point] | –
Cc1cc(C)nc(-n2ncc3c2CC(C)CC3=O)n1 (stereo unspecified) | inactive | –
CC(C)CC(=O)NC(=S)Nc1cccc2nsnc12 | inconclusive [inhibitor, single point] | –
CC(C)n1c(=S)[nH]c2ccccc21 | inactive | –
CCC(c1nnnn1Cc1ccco1)N(CCc1ccccc1)Cc1cc2ccc(OC)cc2[nH]c1=O (stereo unspecified) | inconclusive [inhibitor, single point] | –
Cc1ccc(C)c(CN2CCNC2=O)c1 | inactive | –
O=C(NNC(=O)c1cccc2ccccc12)c1ccc2c(c1)OCO2 | inactive | –
CC1(C)Cc2ccccc2C(=O)N1 | inactive | –
CC(C)c1nc2sc3c(SCC(N)=O)ncnc3c2c2c1CCC2 | inconclusive [inhibitor, single point] | –
O=c1c2ccccc2c(-c2ccccc2)nn1Cc1ccc(Cl)cc1 | inconclusive [inhibitor, single point] | –
CCN(CC)c1ccc(C(NC(C)=O)NC(C)=O)cc1 | inactive | –
Cc1ccc(C)c(C(=O)COC(=O)c2ccc(Br)o2)c1 | inactive | –
Cc1cc(NS(=O)(=O)c2ccc(NC(=O)CCCOc3ccc(Cl)cc3)cc2)no1 | inconclusive [inhibitor, partial curve, poor fit] | –
CNC(=O)c1sc(N2N=C3/C(=C/c4ccccc4)CCCC3C2c2ccccc2)nc1C (stereo unspecified) | inconclusive [inhibitor, single point] | –
CCOc1cc(C2c3c(oc4ccccc4c3=O)C(=O)N2c2nccs2)ccc1O (stereo unspecified) | inconclusive [inhibitor, single point] | –
CCNc1nc(NC(C)C)nc(Oc2ccc(OCCOc3ccc(C)cc3)nn2)n1 | inactive | –
C(=C\c1ccccc1)/C=N/Nc1nc(N2CCCCC2)nc(N2CCCCC2)n1 | inactive | –
C=C1C(C(=O)Nc2ccccc2)C1C(=O)Nc1ccccc1 (stereo unspecified) | – | inactive: -4.28% [at 7.67 µM]

Source: PubChem BioAssay AID1461 (National Center for Advancing Translational Sciences (NCATS), 2008)
